Assay [1] concerns the target HiBiT-tagged human FZD4 (human) (UniProt Q9ULV1). Nature of the assay: FRET or BRET; NanoBiT/BRET competition binding on live HEK293A cells: the tracer eGFP-WNT-3A (conditioned medium, 0.4 nM) on HiBiT-FZD4, 240 min at 37 °C. (BRET reads energy transfer from a luciferase to a nearby fluorophore.)
Assay [2] deals with T1, HiBiT-tagged human FZD9 (human) (UniProt O00144).
T1 sequence: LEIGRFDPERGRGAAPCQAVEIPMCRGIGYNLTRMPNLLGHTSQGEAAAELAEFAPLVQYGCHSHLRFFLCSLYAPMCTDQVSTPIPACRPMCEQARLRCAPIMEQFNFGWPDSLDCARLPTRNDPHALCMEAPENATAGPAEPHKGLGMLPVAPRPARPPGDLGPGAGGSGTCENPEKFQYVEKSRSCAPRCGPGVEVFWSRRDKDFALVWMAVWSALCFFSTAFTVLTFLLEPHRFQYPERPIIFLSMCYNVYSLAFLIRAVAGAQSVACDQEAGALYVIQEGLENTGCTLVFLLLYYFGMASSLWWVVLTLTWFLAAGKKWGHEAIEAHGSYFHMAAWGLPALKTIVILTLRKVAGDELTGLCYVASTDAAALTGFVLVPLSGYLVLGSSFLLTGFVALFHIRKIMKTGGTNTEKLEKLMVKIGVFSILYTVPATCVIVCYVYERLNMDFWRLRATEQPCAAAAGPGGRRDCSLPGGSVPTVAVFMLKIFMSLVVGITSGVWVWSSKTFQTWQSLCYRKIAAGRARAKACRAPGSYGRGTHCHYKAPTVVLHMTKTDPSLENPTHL
Nature of the assay: FRET or BRET; NanoBiT/BRET kinetic binding on live HEK293A cells: cells preincubated 1 h with LgBiT and vivazine, then eGFP-WNT-3A conditioned medium at 2.1, 4.2 or 8.3 nM; BRET every 90 s for 240 min at 37 °C; association model with two or more hot ligand concentrations.

Chains of the proteins cited; added tags and fusions are not shown. Residues count along the entry.
UniProt Q9ULV1, residues 37-537: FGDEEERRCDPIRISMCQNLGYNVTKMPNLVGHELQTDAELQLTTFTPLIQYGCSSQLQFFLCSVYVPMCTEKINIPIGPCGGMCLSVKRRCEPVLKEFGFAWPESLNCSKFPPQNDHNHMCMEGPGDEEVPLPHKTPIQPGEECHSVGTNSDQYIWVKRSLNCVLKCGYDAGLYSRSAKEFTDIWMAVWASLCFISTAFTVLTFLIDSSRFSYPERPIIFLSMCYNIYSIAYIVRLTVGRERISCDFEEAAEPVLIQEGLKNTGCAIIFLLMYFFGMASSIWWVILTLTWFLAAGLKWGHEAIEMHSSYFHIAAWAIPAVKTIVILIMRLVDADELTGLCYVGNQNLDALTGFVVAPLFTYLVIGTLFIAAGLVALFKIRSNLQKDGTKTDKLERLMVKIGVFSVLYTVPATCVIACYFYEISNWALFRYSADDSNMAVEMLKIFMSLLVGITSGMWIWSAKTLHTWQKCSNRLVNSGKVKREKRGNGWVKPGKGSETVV
UniProt P27467, residues 19-352: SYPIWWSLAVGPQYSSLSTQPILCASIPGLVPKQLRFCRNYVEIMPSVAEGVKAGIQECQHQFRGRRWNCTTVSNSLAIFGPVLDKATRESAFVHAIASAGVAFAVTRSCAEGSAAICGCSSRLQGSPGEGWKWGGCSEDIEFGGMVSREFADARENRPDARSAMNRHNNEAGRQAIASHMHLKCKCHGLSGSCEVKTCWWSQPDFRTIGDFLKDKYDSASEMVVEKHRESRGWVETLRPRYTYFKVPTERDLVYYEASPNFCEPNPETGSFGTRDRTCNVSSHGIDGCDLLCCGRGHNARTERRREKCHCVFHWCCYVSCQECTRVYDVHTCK

Assay [3] has as its target T2, HiBiT-tagged human FZD3 (human) (UniProt Q9NPG1).
T2 sequence: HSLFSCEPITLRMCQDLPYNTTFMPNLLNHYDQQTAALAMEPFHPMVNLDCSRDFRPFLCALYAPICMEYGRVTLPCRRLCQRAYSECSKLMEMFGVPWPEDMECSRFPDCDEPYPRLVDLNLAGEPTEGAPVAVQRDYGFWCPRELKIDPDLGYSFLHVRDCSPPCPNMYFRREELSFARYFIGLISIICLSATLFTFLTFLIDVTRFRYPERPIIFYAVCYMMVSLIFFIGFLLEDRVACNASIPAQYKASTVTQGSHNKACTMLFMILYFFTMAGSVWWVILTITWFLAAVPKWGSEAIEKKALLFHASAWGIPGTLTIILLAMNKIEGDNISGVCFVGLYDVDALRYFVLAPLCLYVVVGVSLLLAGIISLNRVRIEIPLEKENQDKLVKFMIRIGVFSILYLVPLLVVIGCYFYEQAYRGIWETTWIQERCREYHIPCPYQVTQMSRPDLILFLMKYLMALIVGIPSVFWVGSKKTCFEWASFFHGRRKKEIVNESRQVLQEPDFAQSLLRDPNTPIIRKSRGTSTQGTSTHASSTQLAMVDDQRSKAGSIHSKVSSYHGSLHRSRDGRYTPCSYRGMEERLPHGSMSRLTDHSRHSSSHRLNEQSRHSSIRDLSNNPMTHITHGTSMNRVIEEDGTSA
Described as above.

The target of assay [4] is T1, HiBiT-tagged human FZD9 (human). Nature of the assay: FRET or BRET; NanoBiT/BRET saturation binding on live HEK293A cells (setup 1): eGFP-WNT-3A conditioned medium 16.7 pM to 16.7 nM, 5% FBS, 10 mM HEPES, 240 min at 37 °C, then LgBiT and furimazine for 10 min; one-site specific model (normalised logarithmic fits for pKd).
In assay [5] the target is T2, HiBiT-tagged human FZD3 (human). The assay is described as above.

Results are given in words; binding and its absence hold for the method and conditions named. In cells and extracts the contact can be indirect. Some binding calls cover weakened binding; strength is not graded here. For some assays here: Tags and fused reporters may be left off the sequences shown.

Regarding “eGFP-tagged mouse WNT-3A (from UniProt P27467 19-352) (ligand)”, the binding entry in assay [1] is recorded as “binds”; in assay [2], “no binding (tested: 8.3 nM)”; in assay [3] it was “no binding (tested: 8.3 nM)”; in assay [4], “no binding (tested: 16.7 nM)”; in assay [5] it was “no binding (tested: 16.7 nM)”.

The values are drawn from publication PMC8205236.
